# Assay results reported in the supplement of paper PMC12297408.
# Where a name gives a salt, the structure may show the parent alone. In all, about 1,300 compounds went through this assay and about 40 (3%) showed activity. This is one part of the list.
# System: Plasmodium falciparum NF54/iGP1_RE9H ulg8 stage V gametocytes
# Assay: gametocyte viability (luciferase signal relative to DMSO control) (% of DMSO control); higher = less gametocytocidal activity, active = 50 or less
# Details: exposure time: 72 h
# Outline: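 Viability was calculated relative to the mean of DMSO vehicle wells on each plate. Day-12 stage V gametocytes of line NF54/iGP1_RE9Hulg8 (~2.5% gametocytemia, 3% hematocrit, 0.5% Albumax II medium) were exposed in 96-well plates to compounds at final 10 µM or 1 µM, one well each, for 72 h at 37 °C. Luminescence was then read on an IVIS Lumina II after D-luciferin addition.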
SMILES,gametocyte viability (concentration: 1 µM),gametocyte viability (concentration: 10 µM)
Cc1ccc(-c2cc(C(F)(F)F)nn2-c2ccc(S(N)(=O)=O)cc2)cc1 [Celecoxib],inactive: 89.4,inactive: 84.1
CC[C@H]1OC(=O)[C@H](C)[C@@H](O[C@H]2C[C@@](C)(OC)[C@@H](O)[C@H](C)O2)[C@H](C)[C@@H](O[C@@H]2O[C@H](C)C[C@H](N(C)C)[C@H]2O)[C@](C)(O)C[C@@H](C)CN(C)[C@H](C)[C@@H](O)[C@]1(C)O [Azithromycin],inactive: 85.5,inactive: 86.7
CN[C@H]1CC[C@@H](c2ccc(Cl)c(Cl)c2)c2ccccc21 [Sertraline],inactive: 91.9,inactive: 65.9
C[C@]12CC[C@@H]3c4ccc(O)cc4C[C@@H](CCCCCCCCC[S+]([O-])CCCC(F)(F)C(F)(F)F)[C@H]3[C@@H]1CC[C@@H]2O (some centres undefined) [Fulvestrant],inactive: 90.3,inactive: 84.7
CO/N=C(\C(=O)N[C@@H]1C(=O)N2C(C(=O)O)=C(COC(C)=O)CS[C@H]12)c1csc(N)n1 [Cefotaxime sodium salt],inactive: 98,inactive: 99.5
CC(C)Oc1ccc2c(=O)c(-c3ccccc3)coc2c1 [Ipriflavone],inactive: 81.6,inactive: 74.6
Cc1cc2cc3c(C)cc(=O)oc3c(C)c2o1 [Trioxsalen],inactive: 82,inactive: 88.2
CC(=O)Nc1nnc(S(N)(=O)=O)s1 [Acetazolamide],inactive: 86.4,inactive: 87.1
Clc1ccc2nsnc2c1NC1=NCCN1 [Tizanidine HCl],inactive: 93.4,inactive: 98.4
CCCCOc1cc(C(=O)OCCN(CC)CC)ccc1N [Benoxinate hydrochloride],inactive: 87,inactive: 87.3
Nc1nc(=O)n([C@@H]2CS[C@H](CO)O2)cc1F [(-)-Emtricitabine],inactive: 78.6,inactive: 84.7
COc1ccc(Cl)cc1C(=O)NCCc1ccc(S(=O)(=O)NC(=O)NC2CCCCC2)cc1 [Glibenclamide],inactive: 86.1,inactive: 85.3
CC#C[C@]1(O)CC[C@H]2[C@@H]3CCC4=CC(=O)CCC4=C3[C@@H](c3ccc(N(C)C)cc3)C[C@@]21C [Mifepristone],inactive: 83.1,inactive: 83.2
CCCCCCNC(=O)n1cc(F)c(=O)[nH]c1=O [Carmofur],inactive: 80.2,inactive: 76.4
CCCOc1ccccc1-c1nc2[nH]nnc2c(=O)[nH]1 [Zaprinast],inactive: 85.1,inactive: 85.1
CN1CCN2c3ncccc3Cc3ccccc3C2C1 (centres undefined) [Mirtazapine],inactive: 79.6,inactive: 77.4
CC(C)[C@H](N)C(=O)OCCOCn1cnc2c(=O)nc(N)[nH]c21 [Valacyclovir hydrochloride],inactive: 85.1,inactive: 83.7
Cc1cc(C)nc(NS(=O)(=O)c2ccc(N)cc2)n1 [Sulfamethazine sodium salt],inactive: 84.4,inactive: 81
CC1(C)O[C@@H]2C[C@H]3[C@@H]4C[C@H](F)C5=CC(=O)C=C[C@]5(C)[C@@]4(F)[C@@H](O)C[C@]3(C)[C@]2(C(=O)CO)O1 [Fluocinolone acetonide],inactive: 83.3,inactive: 83.3

SMILES,gametocyte viability (concentration: 1 µM),gametocyte viability (concentration: 10 µM)
COc1cc(NS(=O)(=O)c2ccc(N)cc2)ncn1 [Sulfamonomethoxine],inactive: 85.2,inactive: 89.5
COC(=O)N/N=C/c1c[n+]([O-])c2ccccc2[n+]1[O-] [Carbadox],inactive: 82,inactive: 82.9
CN(C(=O)CN(CCO)CC(=O)N(C)C(C)(C)Cc1ccccc1)C(C)(C)Cc1ccccc1 [Oxethazaine],inactive: 96.7,inactive: 71.6
CC(C(O)c1ccc(O)cc1)N1CCC(Cc2ccccc2)CC1 (centres undefined) [Ifenprodil tartrate],inactive: 81.9,inactive: 79.7
Cc1c(N)c(=O)n(-c2ccccc2)n1C [Ampyrone],inactive: 84.4,inactive: 85.8
NC[C@H]1O[C@H](O[C@H]2[C@H](O)[C@@H](O[C@H]3O[C@H](CO)[C@@H](O)[C@H](N)[C@H]3O)[C@H](N)C[C@@H]2N)[C@H](N)C[C@@H]1O [Tobramycin],inactive: 89.1,inactive: 85
C=CCOc1ccccc1OCC(O)CNC(C)C (centres undefined) [Oxprenolol hydrochloride],inactive: 97.4,inactive: 93.4
CCOC(=O)/C=C(C)/C=C/C=C(C)/C=C/c1c(C)cc(OC)c(C)c1C [Etretinate],inactive: 90.4,inactive: 98.9
CCCCC1C(=O)N(c2ccccc2)N(c2ccc(O)cc2)C1=O (centres undefined) [Oxyphenbutazone],inactive: 87,inactive: 78.2
N[C@H]1CONC1=O [(S)-(-)-Cycloserine],inactive: 86,inactive: 82.5
CCN(CC)C(=O)Nc1ccc(OCC(O)CNC(C)(C)C)c(C(C)=O)c1 (centres undefined) [Celiprolol HCl],inactive: 93.8,inactive: 93.2
COc1cc2nc(N3CCN(C(=O)C4COc5ccccc5O4)CC3)nc(N)c2cc1OC (centres undefined) [Doxazosin mesylate],inactive: 86.5,inactive: 63.2
O=P(O)(O)C(O)(Cn1ccnc1)P(=O)(O)O [Zoledronic acid hydrate],inactive: 93.3,inactive: 91.4
Cc1cc(C(C)(C)C)cc(C)c1CC1=NCCN1 [Xylometazoline hydrochloride],inactive: 86.3,inactive: 88.9
CCN(CC)C(=O)C1(c2ccccc2)CC1CN (centres undefined) [Milnacipran hydrochloride],inactive: 83,inactive: 84.2
CCN(CCCCOC(=O)c1ccc(OC)c(OC)c1)C(C)Cc1ccc(OC)cc1 (centres undefined) [Mebeverine hydrochloride],inactive: 79.8,inactive: 92.7
CCN(CC)CCOCCOC(=O)C1(c2ccccc2)CCCC1 [Carbetapentane citrate],inactive: 79.2,inactive: 81.5
O=C(c1ccccc1)c1ccc2n1CCC2C(=O)O (centres undefined) [Ketorolac tromethamine],inactive: 90.8,inactive: 91.1
CCOC(=O)[C@@](C)(N)Cc1ccc(O)c(O)c1 [Methyldopate hydrochloride],inactive: 83.2,inactive: 83.7

SMILES,gametocyte viability (concentration: 1 µM),gametocyte viability (concentration: 10 µM)
COc1c(N2CCNC(C)C2)c(F)cc2c(=O)c(C(=O)O)cn(C3CC3)c12 (centres undefined) [Gatifloxacin],inactive: 88,inactive: 83.2
"c1ccc(CNc2ncnc3nc[nH]c23)cc1 [Aminopurine, 6-benzyl]",inactive: 69.7,active: 43.9
CN1Cc2c(N)cccc2C(c2ccccc2)C1 (centres undefined) [Nomifensine maleate],inactive: 87.7,inactive: 82.7
CC(C)(O)c1ccccc1CC[C@@H](SCC1(CC(=O)O)CC1)c1cccc(/C=C/c2ccc3ccc(Cl)cc3n2)c1 [Montelukast],inactive: 84.8,inactive: 79.9
Cc1cc(N)c2ccccc2[n+]1CCCCCCCCCC[n+]1c(C)cc(N)c2ccccc21 [Dequalinium dichloride],inactive: 83.5,active: 36.1
Nc1ccn([C@@H]2CS[C@H](CO)O2)c(=O)n1 [Lamivudine],inactive: 84.3,inactive: 87.3
COc1ccccc1OCC(O)COC(N)=O (centres undefined) [Methocarbamol],inactive: 89,inactive: 84.8
NC1CCN(c2nc3c(cc2F)c(=O)c(C(=O)O)cn3-c2ccc(F)cc2F)C1 (centres undefined) [Tosufloxacin hydrochloride],inactive: 78.5,inactive: 86.9
COC(=O)Nc1nc2cc([S+]([O-])c3ccccc3)ccc2[nH]1 (centres undefined) [Oxfendazol],inactive: 91.9,inactive: 94.8
CO/N=C(\C(=O)N[C@@H]1C(=O)N2C(C(=O)OC(C)OC(C)=O)=C(COC(N)=O)CS[C@H]12)c1ccco1 (some centres undefined) [Cefuroxime axetil],inactive: 94.1,inactive: 93.9
C=CCOC(Cn1ccnc1)c1ccc(Cl)cc1Cl (centres undefined) [Enilconazole],inactive: 82.5,inactive: 76.7
CC(CN(C)C)CN1c2ccccc2Sc2ccccc21 (centres undefined) [Trimeprazine tartrate],inactive: 87.8,inactive: 88
CC1(C)[C@@H](OC(=O)CCC(=O)O)CC[C@]2(C)[C@H]3C(=O)C=C4[C@@H]5C[C@@](C)(C(=O)O)CC[C@]5(C)CC[C@@]4(C)[C@]3(C)CC[C@@H]12 [Carbenoxolone disodium salt],inactive: 84,inactive: 80.8
N=C(N)NCCN1CCCCCCC1 [Guanethidine sulfate],inactive: 90.9,inactive: 99.5
C#C[C@]1(O)CC[C@H]2[C@@H]3CCC4=CC(=O)CC[C@@H]4[C@H]3CC[C@@]21CC [Norgestrel-(-)-D],inactive: 84.3,inactive: 80.2
CCCOc1ccc(C(=O)OCCN(CC)CC)cc1N [Proparacaine hydrochloride],inactive: 98.5,inactive: 105
CC(=O)OCC(=O)[C@@]1(OC(C)=O)[C@@H](C)C[C@H]2[C@@H]3C[C@H](F)C4=CC(=O)C=C[C@]4(C)[C@@]3(F)[C@@H](O)C[C@@]21C [Diflorasone Diacetate],inactive: 92.2,inactive: 89.6
CC(CN(C)C)C(C)(O)Cc1ccc(Cl)cc1 (centres undefined) [Clobutinol hydrochloride],inactive: 91,inactive: 94
C[C@]1(Cn2ccnn2)[C@H](C(=O)O)N2C(=O)C[C@H]2S1(=O)=O [Tazobactam],inactive: 84.9,inactive: 89.7
